Data on one compound can be found in patent US20160003808A1, “MOLECULAR TARGETS AND COMPOUNDS, AND METHODS TO IDENTIFY THE SAME, USEFUL IN THE TREATMENT OF DISEASES ASSOCIATED WITH EPITHELIAL MESENCHYMAL TRANSITION” (GALAPAGOS NV, priority 2013, published 2016).

In data set [1] the test system is HBEC. The data set can be described thus: ATPlite secondary toxicity assay. Particulars: 0.06 μM staurosporin. In general terms: In ATP-based viability assays light output follows the ATP content of the culture.
The subject of data set [2] is HBEC. Description: CellTiter-Blue (CTB) cell viability assay in on target screen. Particulars: 0.04 μM staurosporin, CTB fluorescence, standard curve.

As to `CN[C@@H]1C[C@H]2O[C@@](C)([C@@H]1OC)n1c3ccccc3c3c4c(c5c6ccccc6n2c5c31)C(=O)NC4` [staurosporin], in data set [1], the “decrease in cell viability compared to trigger only” value is 30%. Also, the “decrease in cell viability compared to trigger only cells” value in data set [2] turned out to be 30%.
